Values joined by “and” are separate entries in the source; they are usually repeats but may differ in a detail not shown here. Equal values may be shown once. The campaign covered roughly 410,000 compounds. About 1,200 (0.29%) were called active. This list was built around the results that the source calls inconclusive (neither active nor inactive); the mix of calls is not that of the screen. Calls follow the shape of the dose curve; as a rule, active = well fitted activation curve with a large enough effect; inconclusive = small, poorly fitted or top-dose-only effect; inactive = flat fitted curve, though single readings scatter. A potency beside an inconclusive call is a rough fit, not a confirmed value.
Test: qHTS of Nrf2 Activators; also: nearly all actives have a fitted effect of over 65% in size
Settings: AREc32 ARE-luciferase reporter (MCF7-derived line), luminescence, 24 h; activation: at 46.1 µM (top of the series)
Procedure, shortened: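 ARE activation measured as luciferase luminescence (Steady-Glo, 30 min RT) in AREc32_Fluc cells after 24 hr compound exposure at 37 deg C, 5% CO2; cells seeded overnight at 1000/well in OPTI-MEM, 5% FBS.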
Potency is read from the fitted curve at half-maximal effect; tags tell the direction and shape of the fitted curve.

Potency, active:
COc1ccccc1NC(=O)COc1ccccc1 11.2 µM, C/C=C(\CS(=O)(=O)c1ccccc1)S(=O)(=O)c1ccccc1 12.6 µM, O=C(NC(=S)Nc1ccccc1N1CCCC1)c1ccco1 14.1 µM, O=C(c1cc(-c2ccco2)on1)N1CCCc2ccccc21 11.2 µM, Fc1ccc(C2=CC(c3ccco3)n3nnnc3N2)cc1 (centres undefined) 12.6 µM, Cc1cccc(N2CCN(C(=O)c3cc4cc(F)ccc4[nH]3)CC2)c1C 7.08 µM, Cc1ccc(-c2cc(C(=O)N/N=C/C(Br)=C/c3ccccc3)n[nH]2)o1 20 µM

Potency, inactive:
Cc1ccc(S(=O)(=O)NC(=O)C2(C)CCN2C(=O)c2ccc(C(F)(F)F)nc2C)cc1 (centres undefined), Cc1noc(/C=C/c2ccccc2F)c1S(=O)(=O)N1CCC(C(=O)N2CCOc3ccccc32)CC1, COc1ccc(/C=N/OCC(=O)N=Nc2c(O)[nH]c3ccc(Br)cc23)cc1OC, CCOC(=O)c1ccccc1N=N/C(C(C)=O)=C(/C)O, COc1ccc(CCNC(=O)c2c(C)oc3ncn(C)c(=O)c23)c(OC)c1, Cc1ccc2[nH]c(=O)c3cc(C(=O)NCCCN4CCC(C)CC4)sc3c2c1, CCOC(=O)N1CCc2c(sc3c2c(=O)n(-c2ccccc2C(F)(F)F)c(=O)n3Cc2ccccc2C)C1, Cc1nn(-c2ccc(F)cc2)c(-n2cccc2)c1C(=O)NCCc1ccc(Cl)cc1, Cc1ccc(SCC(=O)NC(=O)Nc2ccc3c(c2)OCCO3)cc1C, COc1ccc2sc(N(Cc3cccnc3)C(=O)C3CCCCC3)nc2c1, Cc1ccc(Nc2nc3ccccc3c3nncn23)c(Cl)c1, Cc1ccc(OCc2cc(C(=O)N3CCC(Oc4cccnc4)CC3)no2)cc1C, CN1CCc2c(sc3nc(SCC(N)=O)n(-c4ccc(Cl)cc4)c(=O)c23)C1, COc1ccc(Cc2c(C(C)(C)C)nc3c(C)cc(Br)cn23)c(C)c1, COc1ccc2cc(C(=O)C3CCCN(C(=O)CCc4ccccn4)C3)ccc2c1 (centres undefined), COc1ccc(-c2csc(NC(=O)C3CCN(C(=O)c4ccc(F)cc4)CC3)n2)cc1OC, CCOC(=O)c1c(NC(=O)c2ccco2)sc2c1CCCCC2, Cc1nc(-c2ccc(S(=O)(=O)Nc3ccc(Cl)c(C(F)(F)F)c3)cc2)co1, Clc1cccc(C2=NC(c3cccs3)=Nc3ccc(Br)cc3N2)c1, O=C(CN1CCN(C(=O)c2cncn2-c2ccccc2)CC1)Nc1ccccc1Cl, O=C(/C(=C\c1ccccc1)c1nc2ccccc2[nH]1)c1ccc(Cl)cc1

Potency, inconclusive:
COc1ccc(C(=O)Nc2cc(C(=O)c3ccccc3)c(C)oc2=O)cc1 22.4 µM [activator, single point], CN1\C(=C/C=C/C=C/C=[N+](C)C)C(C)(C)c2ccccc21 25.1 µM [activator, partial curve, poor fit], O=C(/C=C/C=C/c1ccccc1)CC1(O)C(=O)N(CCc2ccccc2)c2ccccc21 (centres undefined) 28.2 µM [activator, single point], Cc1ccc(/C=C/C(=O)Nc2ccccc2C(N)=O)o1 0.562 µM [activator, full curve, poor fit], Oc1c(Cl)cc(Cl)cc1C(C#Cc1ccccc1)N1CCOCC1 (centres undefined) 15.8 µM [activator, partial curve, poor fit], CC(C)CNC(=O)NC1(C(F)(F)F)Oc2ccccc2O1 31.6 µM [activator, single point], CCOC(=O)c1sc(NC(=O)c2ccco2)nc1C 2.82 µM [activator, full curve, poor fit], O=C1N/C(=N\N=C\c2ccco2)SC1Cc1ccccc1[N+](=O)[O-] (centres undefined) 3.55 µM [activator, partial curve, poor fit], Fc1ccc2nc(Nc3nc4cc5c(cc4s3)OCO5)sc2c1 2.82 µM [activator, full curve], N#CC1CCN(C(=O)c2ccc3c(Cl)c4c(nc3c2)CCCC4)CC1 20 µM [activator, single point], O=C(c1ccc([N+](=O)[O-])o1)N1CCN(c2nc3c(F)cc(F)cc3s2)CC1 5.62 µM [activator, single point], COC(=O)NC(=C(Cl)Cl)S(=O)(=O)c1ccccc1 3.55 µM [activator, partial curve, poor fit], Fc1cccc2sc(Nc3nc4cc5c(cc4s3)OCCO5)nc12 11.2 µM [activator, partial curve, poor fit], CC1CCN(S(=O)(=O)c2ccc3c(c2)C(Cl)(Cl)C(=O)N3)CC1 35.5 µM [activator, single point], COc1cccc(CSc2nc3ccccc3cc2C=O)c1 11.2 µM [activator, partial curve, poor fit], FC(F)(F)c1cc(-c2ccco2)nc(NCc2cccs2)n1 14.1 µM [activator, partial curve, poor fit], CCOc1ccccc1CNC(=O)C1CCN(c2nnc(-n3c(C)ccc3C)s2)CC1 22.4 µM [activator, single point], NS(=O)(=O)c1ccc(Sc2nc3ccccc3s2)c([N+](=O)[O-])c1 6.31 µM [activator, full curve], O=C(Nc1ccc(S(=O)(=O)N2CCOCC2)cc1)c1cc([N+](=O)[O-])ccc1Cl 17.8 µM [activator, single point], COC(=O)c1cc(=O)n(CCc2ccc(OC)cc2)c(=Nc2ccc(F)c(Cl)c2)s1 22.4 µM [activator, single point], CCOC(=O)C1CCN(C2=NC(=O)/C(=C/c3ccc(Cl)cc3)S2)CC1 35.5 µM [activator, single point], O=C(/C=C/c1ccc(S(=O)(=O)NCc2ccco2)cc1)NCc1ccccc1Cl 20 µM [activator, single point], CCOC(=O)c1ccc(N=c2sc(C(=O)OC)cc(=O)n2CCCN2CCOCC2)cc1 25.1 µM [activator, single point] and 35.5 µM [activator, single point], C=CC(=O)N1C/C(=C/c2ccccc2)C(=O)/C(=C\c2ccccc2)C1 0.562 µM [activator, full curve, poor fit], Cc1cccc(N=C2NC(=O)/C(=C/C=C/c3ccco3)S2)c1 15.8 µM [activator, partial curve, poor fit], Nc1c(C(=O)NCc2ccco2)c2nc3ccccc3nc2n1CCc1ccc(F)cc1 17.8 µM [activator, single point], CCOc1ccc(/C=C/C(=O)c2c(O)c3ccccc3oc2=O)cc1 22.4 µM [activator, single point], COc1ccc(C2C(C#N)=C(N)Oc3n[nH]c(C)c32)cc1CSc1ccccn1 (centres undefined) 22.4 µM [activator, single point], COc1ccc(Br)cc1C(=O)NC(=S)Nc1ccc(Cl)c(C(=O)O)c1 28.2 µM [activator, single point], O=C(Cc1ccccc1)NCCc1csc2nc(-c3ccc(Cl)cc3)nn12 10 µM [activator, partial curve, poor fit], Cc1nn(-c2ccccc2)c(Cl)c1/C=C1\SC(=S)N(CCCCCC(=O)O)C1=O 28.2 µM [activator, single point], COc1cccc(CNC(=O)C2CCN(c3nnc(-n4c(C)ccc4C)s3)CC2)c1OC 22.4 µM [activator, single point], O=C(Nc1ccccc1)Oc1cccc2cccnc12 22.4 µM [activator, single point], COc1ccc(NC(=O)c2cc(-c3ccc(C)o3)nc3ccccc23)cc1OC 22.4 µM [activator, single point], Cc1ccc2c(c1C)NC(=O)C21N2CCCC2C(C(=O)c2ccc3ccccc3c2)C12C(=O)Nc1ccccc12 (centres undefined) 11.2 µM [activator, partial curve], Cc1ccc(/C=C/C(=O)OCC(=O)NC(C)C)o1 17.8 µM [activator, single point], COc1ccc(-c2nc3c4ccccc4ccn3c2CN2CCOCC2)cc1OC 11.2 µM [activator, partial curve], CCC(C)Oc1ccc(/C=C/c2[nH]c(=O)[nH]c(=O)c2[N+](=O)[O-])cc1OC (centres undefined) 12.6 µM [activator, single point], CCOC(=O)c1cnc2ccc(C)cc2c1Sc1ccccc1 20 µM [activator, single point], O=C(/C=C/c1ccco1)Nc1cccc2cccnc12 0.891 µM [activator, full curve, poor fit], CCOC(=O)c1c(C)[nH]c(C)c1C(=O)COC(=O)/C=C/c1ccccc1[N+](=O)[O-] 22.4 µM [activator, single point]
